The list shows a part of the results.
test system: PfSIP2 AP2 domain 1 (GST-tagged); experiment: gcPBM binding intensity (ln(normalized median fluorescence intensity)); higher = stronger DNA binding
Method in brief: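 Each value is the highest Masliner-normalised natural-log median intensity across replicate spots of either orientation of a probe. The probes were primer-extended double-stranded 36-bp intergenic genomic sequences on an Agilent 4 × 180k array, alongside negative controls, exposed for 1 h to GST-tagged P. falciparum DNA-binding domains expressed in E. coli. Bound protein was picked up with Alexa488 anti-GST antibody and scanned at 488 nm.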

| Sequence | gcPBM binding intensity (ln) |
| --- | --- |
| CAAATGTGTTCTTCAGGTACAGATACACATTTATGA [XGTACX_site2664] | 6.82 |
| TAAAAAATTATATATTGTACGAATGCATAAAAAAAA [XGTACX_site4606] | 7.37 |
| CACCATGTTAACAAAGCATGCATCTCTATAGTTTTA [TGCATGCA_site97] | 7.08 |
| TTTATTCATTTCTAAAAATATTAAAATAGAATGAAT [CACACA_negctrl_site325] | 6.66 |
| AAACAAAAAATATATACACACTAAACATAAAAAAAA [CACACA_site4185] | 6.86 |
| TAAAAAAAAATAAATGGTACACAATTAAATGTTTAT [XGTACX_site5255] | 6.9 |
| ATAAGAAAATCAAAAAGTACTTTTTACAAAGATAAA [XGTACX_site824] | 6.79 |
| ATATACTATATATAATGTACATATATATTATTATGC [XGTACX_site2957] | 7.09 |
| TAGTTTTTTATATATTGTACAAATAATATATTATAT [XGTACX_site2564] | 7.13 |
| ATTTTATGATATATTTGTACTTAACATTTGGATATA [XGTACX_site5888] | 7.04 |
| TCTTTTTTTAATAAAACATGCAATATTATATATGTA [TGCATGCA_site236] | 7 |
| TAAATTCTTTAAAACTTTAAAACAAAAAAAAAAAAA [CACACA_negctrl_site1078] | 6.8 |
| GTAATTATTAATAAAACATGCGTATAAAATTTTCTC [TGCATGCA_site50] | 7.02 |
| AAAAAAATATATATATATATATATATATATTTATAT [XGTACX_negctrl_site86] | 7.59 |
| TTTGCGTAGAAATGTGTGCACTGATATTTATAATAA [GTGCAC_site9526] | 9.99 |
| TGAACTCATAGGAAAACACACATATGGGTAATATAT [CACACA_site187] | 6.98 |
| ATTTTCCTTTTACCACGTACACATAAAAACGTTATA [XGTACX_site3595] | 7.49 |
| AAAAAAAATCAAATGGGTACTTATTCTTAATAATAT [XGTACX_site3792] | 7.04 |
| ATAAATATATTTAAATGTACATAATATATATATATA [XGTACX_site5137] | 8.95 |
| TATATATATTTAAAGGTGCAGATGCCAGTGTATATT | 10.1 |
| AATGAACTCACGAGCACACACACACCGATATATATA [CACACA_site4710] | 7.49 |
| ATATATACATACAAATTAATTACGAGGAATATATTA [XGTACX_negctrl_site417] | 6.86 |

| Sequence | gcPBM binding intensity (ln) |
| --- | --- |
| ACATATTCATATGGAAGTACGATAATGTAGTCATAT [XGTACX_site7080] | 6.83 |
| TATACATATATATACACACACACATATATATATATA [CACACA_site1299] | 9.32 |
| GGAACTTATTTTTATACACACATATGTGCATATTAT [CACACA_site629] | 7.64 |
| GTAAAAAAATTAAAAATTAACAAGGAATTAAGTATA [CACACA_negctrl_site1688] | 6.65 |
| ATCATAAATATAGCAACACACGGATTACATAAAATA [CACACA_site2796] | 7.08 |
| TTAAAAAAATAATTAACACACACATGTATATCTATA [CACACA_site9026] | 6.82 |
| TTGTAATAAATAAAAGTGCAGATATGGTTCCACTAA [GTGCAC_site9942] | 7.85 |
| TGAATAAATATATATACACACATATCTGTATTTATT [CACACA_site4991] | 7.01 |
| TATATATATACCAACACACATACATATATATATATA [CACACA_site1795] | 9.23 |
| AAATTTGGCAGACACACACACACACGCACACGCACA [CACACA_site6423] | 8.2 |
| CCCTCCCCATGTTTAGTGCAAAAATATTTGAAATTG [GTGCAC_site9873] | 8.61 |
| TATGAAATTAGAATTACACACAGGAAAATAAAATGC [CACACA_site6822] | 7.33 |
| ATATTACGCACAAAAAAAAAAAAAAAAAAAAAAAAA [CACACA_negctrl_site941] | 7.41 |
| AAAATTAAAATTTTCACACAGATATATTTACAATTT [CACACA_site5692] | 6.66 |
| ATGATGTGCTTTAAAAGTACTTAAGTTATATTCTTT [XGTACX_site7127] | 6.86 |
| TAAATTAAAAAAAATACACACACACCGACACATATA [CACACA_site9084] | 7.12 |
| AAAAAGAAGAATAATACACACAAATTACTTTATATA [CACACA_site6984] | 6.7 |
| TTCGTAACTGATTCAACACACAAAAGGGGGAAAATT [CACACA_site1754] | 8.03 |
| ATATATATATATATGTGTACATATATTAAGATATAT [XGTACX_site1065] | 9.25 |
| AATTACAAATATTCATGTACATATTTATAAATACAT [XGTACX_site5430] | 7.1 |
| ATATTATAGAAATATACACACATTGTTTTATAGCAT [CACACA_site7177] | 6.82 |
| TATGTTATATAATATTGTACACAAAATGGTTTCTAT [XGTACX_site7686] | 7.17 |

| Sequence | gcPBM binding intensity (ln) |
| --- | --- |
| AGGTATGTCTATAAATGTACATATGAGTTCAATTTC [XGTACX_site2244] | 6.96 |
| CACAGTGATATAAAAACACACATGAATTCTAATTTC [CACACA_site6884] | 6.83 |
| CATAAAAATATTAATAAACACACAATCAGATATTGA [CACACA_site9032] | 6.87 |
| AAATATATATAAACAAGTACATATTTAAAAAAAGGA [XGTACX_site2631] | 7.21 |
| ATATATATGAAACACACACACAAAAAAAAAAAAAAA [CACACA_site3647] | 7.11 |
| ATAACACAAAATTGTTGTACACGTGTTAATAAGTGA [XGTACX_site4452] | 7.12 |
| TAAAGTTATGCAATAACACACATATACAATACATAT [CACACA_site6698] | 6.9 |
| AATATTTATATAAATGCATGCTGATACAACAGTCTT [TGCATGCA_site21] | 6.79 |
| TATATAACCGAGTGCACACACAAAAAAAAAGTGAAC [CACACA_site6806] | 11.1 |
| TATTAAATATTGTATACATGCAAATACTAGAAAATT [TGCATGCA_site370] | 7.04 |
| AATAATATAAATATTACACACTAATTGTATTATAGA [CACACA_site6347] | 6.79 |
| TAAAATGAATATAGGTGTACTTAAAAAAAAGTAAAA [XGTACX_site4613] | 7.08 |
| TAAATTCTTTATAATCGTACATAAATAGAAAAATAA [XGTACX_site601] | 7.15 |
| TAAAAGAAATAATATACACACATATATAAAAATAAA [CACACA_site1329] | 6.86 |
| TATCGAGCCATTTTTACATGCAATTATACATAATTT [TGCATGCA_site987] | 7.02 |
| TTCAAATAATTTAAATGTACGTTGCTTTATTAAAAG [XGTACX_site3674] | 6.85 |
| CATGTATACTATAATACACACTATAAAATATACACC [CACACA_site7121] | 7.16 |
| ATGATGAAAATAGAAATACACACTAAAAAATAAAAT [CACACA_site1136] | 6.86 |
| ATAAATAATAAAAAATGTACACATATAAATATAAAG [XGTACX_site727] | 7.11 |
| AAAACATGTTCAACATGTACACAACAGGATGAATAT [XGTACX_site506] | 7.14 |
| AAATATATGTTATATGTGCACTTTTTTTTTTTTTTT [GTGCAC_site9667] | 10.4 |
| CTTACTTACTTACTCACACACATATACAAAGAAAAA [CACACA_site3347] | 7.56 |

| Sequence | gcPBM binding intensity (ln) |
| --- | --- |
| TTTTACTAAATATATACACACATTATACATATATAT [CACACA_site9081] | 7.1 |
| GAATGCATGTAAATATGTACATATATTTAAAAATTT [XGTACX_site6032] | 7.02 |
| TGTTAAAAGGTTAAATTAAAATAACCTCCGGAAATT [GTGCAC_negctrl_site236] | 6.63 |
| ATAAATATATATTTACGTACATATTATATATATATA [XGTACX_site6172] | 8.75 |
| AAAAAAATTTCACATTGTACTTTAATAATATACTAC [XGTACX_site7264] | 6.99 |
| ACATATAAATTGTGTACACATATATATATATTTTTT [CACACA_site5946] | 7.58 |
| GTTTTGTACATATTCTCACACATATAAAAATACCCA [CACACA_site4446] | 7.47 |
| TTCATAATAAAAAGGTGTACATATATATATATATAT [XGTACX_site2829] | 9.8 |
| AAGCATTTAATGTTTTATATAACATGTATTTTTTAT [CACACA_negctrl_site673] | 6.96 |
| TTTATATGTATACAAACATATAAATATAAATGTATT [TGCATGCA_negctrl_site346] | 6.85 |
| TGTTCTATGATTTGTACACACTTTTTTTTAAAATGC [CACACA_site5558] | 7.23 |
| TATATATACATATACACACACACACCGATATATATA [CACACA_site8706] | 7.3 |
| AAAATAAAAAGAAAAAATAAAAAGAAAAAATAAAAA [CACACA_negctrl_site120] | 6.77 |
| TTATATAATCCTTTCAAACACACAAAATATAATTAA [CACACA_site1830] | 6.91 |
| AGTGAAAAAAAATTTACACACATAAAATATAAACGA [CACACA_site3724] | 7.08 |
| AAAAAAAATATAAGTGGTACTCACATAAAGACATAT [XGTACX_site3709] | 7.24 |
| AAATAAAATACATATAAACACACATATAAACCAACA [CACACA_site8789] | 7.08 |
| TTTTTTATTCTTTTTGCACACAGGAAATTTACAGAT [CACACA_site1090] | 7.78 |
| TTTTTAGTTCATTAAACACACAAAAAAAAAAATAAA [CACACA_site6035] | 6.91 |
| TAATACTTTTAATCTACACACGCTGAGACATGCTTT [CACACA_site1484] | 6.61 |
| TACAAAAAAAGATGATGTACAATGAAAAATAAGAAA [XGTACX_site5840] | 7 |
| AAAAAAAAAAAAAACACACACACAAATACAAATACA [CACACA_site414] | 7.41 |
